Results taken from PMC8249470, “Binding of guide piRNA triggers methylation of the unstructured N-terminal region of Aub leading to assembly of the piRNA amplification complex” (Nature Communications, 2021).
No constants are given. Whether binding was seen depends on the method and setting. In cells and extracts the contact can be indirect. Some results given as binding are weak or reduced against the parent protein; the word gives no strength. Tags and fused reporters may be left off the sequences shown.

Experiments:
[1] = target: T1, Aub N-terminal fragment (1-220aa) (Drosophila melanogaster) (UniProt O76922); assay: co-IP; tagged proteins co-expressed in S2 cells; lysis buffer 20 mM Tris pH 7.4, 200 mM KCl, 0.1% Tween-20, 0.1% Igepal, 100 μg/mL RNase A; anti-FLAG, anti-HA or anti-GFP beads, 4 °C, 4 h; Western blot; in Fig. 6e lysates were incubated with or without ssRNA oligo before the co-IP
T1 sequence: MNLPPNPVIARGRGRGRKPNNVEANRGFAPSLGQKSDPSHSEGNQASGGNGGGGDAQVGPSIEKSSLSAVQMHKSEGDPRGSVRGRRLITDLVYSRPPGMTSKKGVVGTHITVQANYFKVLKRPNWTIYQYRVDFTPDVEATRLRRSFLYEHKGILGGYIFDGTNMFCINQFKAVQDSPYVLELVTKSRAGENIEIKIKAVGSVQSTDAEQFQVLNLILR

[2] = target: T2, Aub with the N-terminal region (1-220aa) deleted (Drosophila melanogaster) (UniProt O76922); assay: as above
T2 sequence: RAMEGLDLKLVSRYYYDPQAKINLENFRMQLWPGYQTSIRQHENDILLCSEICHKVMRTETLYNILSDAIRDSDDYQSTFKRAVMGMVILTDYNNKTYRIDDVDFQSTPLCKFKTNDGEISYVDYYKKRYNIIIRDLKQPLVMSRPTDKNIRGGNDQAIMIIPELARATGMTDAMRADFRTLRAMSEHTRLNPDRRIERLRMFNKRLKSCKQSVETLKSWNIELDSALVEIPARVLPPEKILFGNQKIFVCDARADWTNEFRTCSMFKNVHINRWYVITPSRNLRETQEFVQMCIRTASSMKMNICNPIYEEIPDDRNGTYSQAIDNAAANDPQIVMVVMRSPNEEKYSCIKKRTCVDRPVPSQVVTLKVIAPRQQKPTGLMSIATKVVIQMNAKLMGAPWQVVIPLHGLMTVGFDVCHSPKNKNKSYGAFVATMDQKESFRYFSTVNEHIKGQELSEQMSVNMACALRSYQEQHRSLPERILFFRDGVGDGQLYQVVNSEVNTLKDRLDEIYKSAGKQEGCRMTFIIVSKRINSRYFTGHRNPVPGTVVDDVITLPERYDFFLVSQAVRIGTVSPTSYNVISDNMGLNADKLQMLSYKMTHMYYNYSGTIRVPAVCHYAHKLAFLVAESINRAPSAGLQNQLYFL

B1: Csul (tag not named; co-IP with Aub fragments) (enzyme, UniProt Q9U6Y9 1-610)
chain: MNYYVCLHQEGVNSIPKLIEKAFANNYNVVSTSINANMLPFEPHESDPTYPATILSGSDWNSKVIFTMSDVNVDSPNDKLREHAKEVFMRDVAWAEHLQNVGNLMVRLRGPENENLASIVLAKTKDDFPSGNWFIQVPITNPELATFEHRKDATAEEVAEAESNDPWNWWNNLRMVTKHSTKVKVVIELNDADRPSKETVRRWLGEPIEAIIIPSSLFVRNRSNYCVLKKEWQLIVGHFISVRANIIISTNPNDKALCQYADYVNKLINDNCDKHMLNSYENMLEIPLQPLCDNLDTYTYEVFETDPVKYKLYQDAVQAALLDRVSAAEAKTKLTVVMLLGGGRGPLARAVFNAAELTKRKVRLYIIEKNPNAIRTLSNMVKTLWADKDVHIFSKDMRDFSPPELADIMVSELLGSFGDNELSPECLDGALKLLKPDGISIPYKSTSYINPLMSAVLHQNVCQLLPTYPAFDYGYVSLLKNIYHIDEPQALFEFVHPNRAENIDNTRCKTVSFKVNKDCVLHGIGGYFDTHLYKDICLSINPLTHTPGMFSWFPMFFATRPRTLREGQTISIQFWRCVDATKVWYEWQVVNSPDDWEHHNTRGTGYNMRL
[1]
  binding: binds
[2]
  binding: no binding
